Data as given in publication PMC12820563, “FoxP3 forms a head-to-head dimer in vivo and stabilizes its multimerization on adjacent microsatellites”.
Some of the results follow.

Target: T1, MBP-FoxP1dN (Mus musculus, UniProt P58462 326-579)
T1 sequence: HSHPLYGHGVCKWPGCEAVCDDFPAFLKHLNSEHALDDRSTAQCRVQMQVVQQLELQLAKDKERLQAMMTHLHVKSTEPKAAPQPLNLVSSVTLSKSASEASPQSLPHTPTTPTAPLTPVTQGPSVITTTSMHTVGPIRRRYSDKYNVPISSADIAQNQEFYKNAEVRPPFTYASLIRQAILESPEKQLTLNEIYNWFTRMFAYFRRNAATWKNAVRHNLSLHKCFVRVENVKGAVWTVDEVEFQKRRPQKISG
Experiment: PD-seq (MBP pull-down with sequencing); 20 mM Tris-HCl pH 7.5, 100 mM NaCl, 1.5 mM MgCl2, 0.4 uM protein, 0.1 uM dsDNA library, 30 min, room temperature, amylose pull-down; high values mean tight binding
Settings: protein: recombinant; tags: His6-MBP; chain copies: 2; dsDNA, one strand shown
Procedure, shortened: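 Binding is given as reads-per-million enrichment, pull-down over input, with replicates pooled. The bait was an N-terminus-lacking mouse FoxP3 or FoxP1 fragment with a His6-MBP tag, expressed in E. coli and used at 0.4 µM with 0.1 µM Klenow-filled degenerate double-stranded DNA library for 30 min at room temperature in Tris pH 7.5 buffer with NaCl and MgCl2. Amylose resin pull-down with three washes was followed by proteinase K release, PCR barcoding and Illumina sequencing.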

Sequence | binding signal
GATGATTGTTCTCCCAGCTGATGAATTAAACCACTCGAGTAAACAAATTTTCCTAATCTTTCTGTTCAAGCGCCATCTAC | 0.958 RPM ratio (pull-down/input)
GATGATTGTTCTCCCAGCTGATGAATTACTGGAGTCGAGTAAACAAATTTTCCTAATCTTTCTGTTCAAGCGCCATCTAC | 0.91 RPM ratio (pull-down/input)
GATGATTGTTCTCCCAGCTGATGAATTGTGCCTATCGAGTAAACAAATTTTCCTAATCTTTCTGTTCAAGCGCCATCTAC | 1.09 RPM ratio (pull-down/input)
GATGATTGTTCTCCCAGCTGATGAATTCTTTATTTCGAGTAAACAAATTTTCCTAATCTTTCTGTTCAAGCGCCATCTAC | 1.03 RPM ratio (pull-down/input)
GATGATTGTTCTCCCAGCTGATGAATTAGATAGCTCGAGTAAACAAATTTTCCTAATCTTTCTGTTCAAGCGCCATCTAC | 0.854 RPM ratio (pull-down/input)
GATGATTGTTCTCCCAGCTGATGAATTAAGTGTATCGAGTAAACAAATTTTCCTAATCTTTCTGTTCAAGCGCCATCTAC | 1.28 RPM ratio (pull-down/input)
GATGATTGTTCTCCCAGCTGATGAATTGTTATACTCGAGTAAACAAATTTTCCTAATCTTTCTGTTCAAGCGCCATCTAC | 1.31 RPM ratio (pull-down/input)
GATGATTGTTCTCCCAGCTGATGAATTGATACCATCGAGTAAACAAATTTTCCTAATCTTTCTGTTCAAGCGCCATCTAC | 1.19 RPM ratio (pull-down/input)
GATGATTGTTCTCCCAGCTGATGAATTGCTCATGTCGAGTAAACAAATTTTCCTAATCTTTCTGTTCAAGCGCCATCTAC | 0.977 RPM ratio (pull-down/input)
GATGATTGTTCTCCCAGCTGATGAATTCAACAACTCGAGTAAACAAATTTTCCTAATCTTTCTGTTCAAGCGCCATCTAC | 1.26 RPM ratio (pull-down/input)
GATGATTGTTCTCCCAGCTGATGAATTCTATTATTCGAGTAAACAAATTTTCCTAATCTTTCTGTTCAAGCGCCATCTAC | 1.55 RPM ratio (pull-down/input)
GATGATTGTTCTCCCAGCTGATGAATTTTAGTTTTCGAGTAAACAAATTTTCCTAATCTTTCTGTTCAAGCGCCATCTAC | 1.4 RPM ratio (pull-down/input)
GATGATTGTTCTCCCAGCTGATGAATTCTTATGCTCGAGTAAACAAATTTTCCTAATCTTTCTGTTCAAGCGCCATCTAC | 1.08 RPM ratio (pull-down/input)
GATGATTGTTCTCCCAGCTGATGAATTTGGCGCTTCGAGTAAACAAATTTTCCTAATCTTTCTGTTCAAGCGCCATCTAC | 0.895 RPM ratio (pull-down/input)
GATGATTGTTCTCCCAGCTGATGAATTACAATTTTCGAGTAAACAAATTTTCCTAATCTTTCTGTTCAAGCGCCATCTAC | 1.36 RPM ratio (pull-down/input)
GATGATTGTTCTCCCAGCTGATGAATTTGAACCCTCGAGTAAACAAATTTTCCTAATCTTTCTGTTCAAGCGCCATCTAC | 0.763 RPM ratio (pull-down/input)
GATGATTGTTCTCCCAGCTGATGAATTATAACCCTCGAGTAAACAAATTTTCCTAATCTTTCTGTTCAAGCGCCATCTAC | 0.997 RPM ratio (pull-down/input)
GATGATTGTTCTCCCAGCTGATGAATTAAAAAGCTCGAGTAAACAAATTTTCCTAATCTTTCTGTTCAAGCGCCATCTAC | 0.898 RPM ratio (pull-down/input)
